# The supplement of paper PMC8728848
# This is one part of the list.
# B1: FaeGab (Escherichia coli) (protein)
# chain: WMTGDFNGSVDIGGSITADDYRQKWEWKVGTGLNGFGNVLNDLTNGGTKLTITVTGNKPILLGRTKEAFATPVSGGVDGIPQIAFTDYEGASVKLRNTDGETNKGLAYFVLPMKNAEGTKVGSVKVNASYAGVFGKGGVTSADGELFSLFADGLRAIFYGGLTTTVSGAALTSGSAAAARTELFGSLSRNDILGQIQRVNANITSLVDVAGSYREDMEYTDGTVVSAAYALGIANGQTIEATFNQAVTTSTQWSAPLNVAITYY
# Key:
# Assay in all cases: glycan array binding signal (z-score within array); higher = stronger binding
# Conditions in all cases: glycan notation: IUPAC condensed, linker removed
# [1] = target: Fuc(a1-3)[Gal(b1-4)]GlcNAc
# Procedure, shortened: (§1)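 Negative Z-scores can be read as non-binding. The Z-score is calculated within each array and then averaged across arrays of one protein sequence at different concentrations or buffers and across linkers. Arrays, 3228 in all, were curated from the Consortium for Functional Glycomics database and kept only where the protein sequence was available.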
# [2] = target: Fuc(a1-3)[Gal(b1-4)]GlcNAc(b1-4)Gal(b1-4)[Fuc(a1-3)]GlcNAc
# Procedure, shortened: as §1
# [3] = target: Fuc(a1-3)[Gal(b1-4)]GlcNAc(b1-4)Gal(b1-4)[Fuc(a1-3)]GlcNAc(b1-4)Gal(b1-4)[Fuc(a1-3)]GlcNAc
# Procedure, shortened: as §1
# [4] = target: Fuc(a1-3)[Gal3S(b1-4)]GlcNAc
# Procedure, shortened: as §1
# [5] = target: Fuc(a1-3)[GalNAc(b1-4)]GlcNAc
# Procedure, shortened: as §1
# [6] = target: Fuc(a1-4)GlcNAc
# Procedure, shortened: as §1
# [7] = target: Fuc(b1-3)GlcNAc
# Procedure, shortened: as §1
# [8] = target: Gal(a1-2)Gal
# Procedure, shortened: as §1
# [9] = target: Gal(a1-3)Gal
# Procedure, shortened: as §1
# [10] = target: Gal(a1-3)Gal(b1-3)GlcNAc
# Procedure, shortened: as §1
# [11] = target: Gal(a1-3)Gal(b1-4)Glc
# Procedure, shortened: as §1
# [12] = target: Gal(a1-3)Gal(b1-4)GlcNAc
# Procedure, shortened: as §1
# [13] = target: Gal(a1-3)Gal(b1-4)[Fuc(a1-3)]GlcNAc
# Procedure, shortened: as §1
# [14] = target: Gal(a1-3)GalNAc
# Procedure, shortened: as §1
# [15] = target: Gal(a1-3)[Gal(a1-4)]Gal(b1-4)GlcNAc
# Procedure, shortened: as §1
# [16] = target: Gal(a1-4)Gal(b1-4)Glc
# Procedure, shortened: as §1
# [17] = target: Gal(a1-4)Gal(b1-4)GlcNAc
# Procedure, shortened: as §1
# [18] = target: Gal(a1-4)GlcNAc
# Procedure, shortened: as §1
# [19] = target: Gal(a1-6)Glc
# Procedure, shortened: as §1
# [20] = target: Gal(b1-2)Gal
# Procedure, shortened: as §1
# [21] = target: Gal(b1-3)Gal
# Procedure, shortened: as §1
# [22] = target: Gal(b1-3)GalNAc
# Procedure, shortened: as §1
# [23] = target: Gal(b1-3)GalNAc(b1-3)Gal(a1-4)Gal(b1-4)Glc
# Procedure, shortened: as §1
# [24] = target: Gal(b1-3)GalNAc(b1-4)Gal(b1-4)Glc
# Procedure, shortened: as §1
# [25] = target: Gal(b1-3)GalNAc(b1-4)[Neu5Ac(a2-3)]Gal(b1-4)Glc
# Procedure, shortened: as §1
# [26] = target: Gal(b1-3)GlcNAc
# Procedure, shortened: as §1
# [27] = target: Gal(b1-3)GlcNAc(b1-3)Gal(b1-4)Glc
# Procedure, shortened: as §1
# [28] = target: Gal(b1-3)GlcNAc(b1-3)Gal(b1-4)GlcNAc
# Procedure, shortened: as §1
# [29] = target: Gal(b1-3)[Fuc(a1-4)]GlcNAc
# Procedure, shortened: as §1
# [30] = target: Gal(b1-3)[Fuc(a1-4)]GlcNAc(b1-3)Gal(b1-4)GlcNAc
# Procedure, shortened: as §1
# [31] = target: Gal(b1-3)[Fuc(a1-4)]GlcNAc(b1-3)Gal(b1-4)[Fuc(a1-3)]GlcNAc
# Procedure, shortened: as §1
# [32] = target: Gal(b1-3)[GlcNAc(b1-6)]GalNAc
# Procedure, shortened: as §1
# [33] = target: Gal(b1-3)[Neu5Ac(a2-6)]GalNAc
# Procedure, shortened: as §1
# [34] = target: Gal(b1-3)[Neu5Ac(a2-6)]GlcNAc(b1-6)Gal(b1-4)Glc
# Procedure, shortened: as §1
# [35] = target: Gal(b1-3)[Neu5Ac(b2-6)]GalNAc
# Procedure, shortened: as §1
# [36] = target: Gal(b1-4)GalNAc(a1-3)[Fuc(a1-2)]Gal(b1-4)GlcNAc
# Procedure, shortened: as §1
# [37] = target: Gal(b1-4)GalNAc(b1-3)[Fuc(a1-2)]Gal(b1-4)GlcNAc
# Procedure, shortened: as §1
# [38] = target: Gal(b1-4)Glc
# Procedure, shortened: as §1
# [39] = target: Gal(b1-4)Glc6S
# Procedure, shortened: as §1
# [40] = target: Gal(b1-4)GlcNAc
# Procedure, shortened: as §1
# [41] = target: Gal(b1-4)GlcNAc(b1-2)Man(a1-3)[Gal(b1-4)GlcNAc(b1-2)Man(a1-6)]Man(b1-4)GlcNAc(b1-4)GlcNAc
# Procedure, shortened: as §1
# [42] = target: Gal(b1-4)GlcNAc(b1-3)Gal(b1-4)Glc
# Procedure, shortened: as §1
# [43] = target: Gal(b1-4)GlcNAc(b1-3)Gal(b1-4)GlcNAc
# Procedure, shortened: as §1
# [44] = target: Gal(b1-4)GlcNAc(b1-3)Gal(b1-4)GlcNAc(b1-3)Gal(b1-4)GlcNAc
# Procedure, shortened: as §1
# [45] = target: Gal(b1-4)GlcNAc(b1-3)Gal(b1-4)[Fuc(a1-3)]GlcNAc(b1-3)Gal(b1-4)[Fuc(a1-3)]GlcNAc
# Procedure, shortened: as §1
# [46] = target: Gal(b1-4)GlcNAc(b1-3)GalNAc
# Procedure, shortened: as §1
# [47] = target: Gal(b1-4)GlcNAc(b1-3)[Gal(b1-4)GlcNAc(b1-6)]GalNAc
# Procedure, shortened: as §1
# [48] = target: Gal(b1-4)GlcNAc(b1-6)Gal(b1-4)GlcNAc(b1-6)GalNAc
# Procedure, shortened: as §1
# [49] = target: Gal(b1-4)GlcNAc(b1-6)GalNAc
# Procedure, shortened: as §1
# [50] = target: Gal(b1-4)GlcNAc(b1-6)[Gal(b1-3)]GalNAc
# Procedure, shortened: as §1
# [51] = target: Gal3S(b1-3)GalNAc
# Procedure, shortened: as §1
# [52] = target: Gal3S(b1-3)GlcNAc
# Procedure, shortened: as §1
# [53] = target: Gal3S(b1-3)[Fuc(a1-4)]GlcNAc
# Procedure, shortened: as §1
# [54] = target: Gal3S(b1-4)Glc
# Procedure, shortened: as §1
# [55] = target: Gal3S(b1-4)Glc6S
# Procedure, shortened: as §1
# [56] = target: Gal3S(b1-4)GlcNAc
# Procedure, shortened: as §1
# [57] = target: Gal3S(b1-4)GlcNAc6S
# Procedure, shortened: as §1
# [58] = target: Gal3S6S(b1-4)GlcNAc
# Procedure, shortened: as §1
# [59] = target: Gal3S6S(b1-4)GlcNAc6S
# Procedure, shortened: as §1
# [60] = target: Gal4S(b1-4)GlcNAc
# Procedure, shortened: as §1
# [61] = target: Gal4S6S(b1-4)GlcNAc
# Procedure, shortened: as §1
# [62] = target: Gal6S(b1-4)Glc
# Procedure, shortened: as §1
# [63] = target: Gal6S(b1-4)Glc6S
# Procedure, shortened: as §1
# [64] = target: Gal6S(b1-4)GlcNAc
# Procedure, shortened: as §1
# [65] = target: GalNAc(a1-3)Gal
# Procedure, shortened: as §1
# [66] = target: GalNAc(a1-3)GalNAc
# Procedure, shortened: as §1
# [67] = target: GalNAc(b1-3)Gal(a1-4)Gal(b1-4)GlcNAc
# Procedure, shortened: as §1
# [68] = target: GalNAc(b1-3)GalNAc
# Procedure, shortened: as §1
# [69] = target: GalNAc(b1-4)GlcNAc
# Procedure, shortened: as §1
# [70] = target: Glc(a1-4)Glc
# Procedure, shortened: as §1
# [71] = target: Glc(a1-6)Glc(a1-6)Glc
# Procedure, shortened: as §1
# [72] = target: Glc(b1-4)Glc
# Procedure, shortened: as §1
# [73] = target: Glc(b1-6)Glc
# Procedure, shortened: as §1
# [74] = target: GlcA(b1-3)Gal
# Procedure, shortened: as §1
# [75] = target: GlcA(b1-6)Gal
# Procedure, shortened: as §1
binder,measurement,setting,value
B1,glycan array binding signal (z-score),[1],-0.229
same,glycan array binding signal (z-score),[2],-0.089
same,glycan array binding signal (z-score),[3],-0.422
same,glycan array binding signal (z-score),[4],-0.159
same,glycan array binding signal (z-score),[5],-0.281
same,glycan array binding signal (z-score),[6],-0.32
same,glycan array binding signal (z-score),[7],-0.112
same,glycan array binding signal (z-score),[8],0.217
same,glycan array binding signal (z-score),[9],0.089
same,glycan array binding signal (z-score),[10],-0.364
same,glycan array binding signal (z-score),[11],-0.281
same,glycan array binding signal (z-score),[12],-0.522
same,glycan array binding signal (z-score),[13],-0.358
same,glycan array binding signal (z-score),[14],-0.083
same,glycan array binding signal (z-score),[15],-0.397
same,glycan array binding signal (z-score),[16],-0.353
same,glycan array binding signal (z-score),[17],-0.265
same,glycan array binding signal (z-score),[18],-0.064
same,glycan array binding signal (z-score),[19],0.572
same,glycan array binding signal (z-score),[20],0.149
same,glycan array binding signal (z-score),[21],0.407
same,glycan array binding signal (z-score),[22],0.385
same,glycan array binding signal (z-score),[23],-0.015
same,glycan array binding signal (z-score),[24],0.153
same,glycan array binding signal (z-score),[25],-0.125
same,glycan array binding signal (z-score),[26],-0.27
same,glycan array binding signal (z-score),[27],0.776
same,glycan array binding signal (z-score),[28],-0.347
same,glycan array binding signal (z-score),[29],-0.192
same,glycan array binding signal (z-score),[30],-0.388
same,glycan array binding signal (z-score),[31],1.01
same,glycan array binding signal (z-score),[32],0.42
same,glycan array binding signal (z-score),[33],0.197
same,glycan array binding signal (z-score),[34],-0.23
same,glycan array binding signal (z-score),[35],0.151
same,glycan array binding signal (z-score),[36],-0.256
same,glycan array binding signal (z-score),[37],-0.348
same,glycan array binding signal (z-score),[38],0.501
same,glycan array binding signal (z-score),[39],0.611
same,glycan array binding signal (z-score),[40],-0.221
same,glycan array binding signal (z-score),[41],-0.442
same,glycan array binding signal (z-score),[42],0.653
same,glycan array binding signal (z-score),[43],-0.445
same,glycan array binding signal (z-score),[44],-0.211
same,glycan array binding signal (z-score),[45],-0.369
same,glycan array binding signal (z-score),[46],-0.228
same,glycan array binding signal (z-score),[47],-0.424
same,glycan array binding signal (z-score),[48],-0.222
same,glycan array binding signal (z-score),[49],0.093
same,glycan array binding signal (z-score),[50],0.017
same,glycan array binding signal (z-score),[51],0.165
same,glycan array binding signal (z-score),[52],-0.012
same,glycan array binding signal (z-score),[53],-0.309
same,glycan array binding signal (z-score),[54],-0.054
same,glycan array binding signal (z-score),[55],0.181
same,glycan array binding signal (z-score),[56],-0.212
same,glycan array binding signal (z-score),[57],-0.124
same,glycan array binding signal (z-score),[58],-0.35
same,glycan array binding signal (z-score),[59],-0.119
same,glycan array binding signal (z-score),[60],-0.344
same,glycan array binding signal (z-score),[61],0
same,glycan array binding signal (z-score),[62],-0.008
same,glycan array binding signal (z-score),[63],0.473
same,glycan array binding signal (z-score),[64],-0.201
same,glycan array binding signal (z-score),[65],0.081
same,glycan array binding signal (z-score),[66],0.048
same,glycan array binding signal (z-score),[67],-0.401
same,glycan array binding signal (z-score),[68],0.344
same,glycan array binding signal (z-score),[69],-0.071
same,glycan array binding signal (z-score),[70],8.87
same,glycan array binding signal (z-score),[71],10.2
same,glycan array binding signal (z-score),[72],4.4
same,glycan array binding signal (z-score),[73],0.92
same,glycan array binding signal (z-score),[74],0.833
same,glycan array binding signal (z-score),[75],0.932
